# From the supplement of paper PMC8512760
# Some of the results follow. Single values are uncertain, as repeats are few or missing.
# System: MDA-468
# Test: cell viability relative to vehicle (% of vehicle); basal-like triple-negative breast cancer lines; higher = less cytotoxic
# Conditions: 10 µM; 72 h
# 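Note: stably firefly luciferase-GFP labeled cells in 96-well plates, viability read as luciferase photon flux after d-luciferin addition, treated wells normalized to vehicle wells, single-dose high-throughput screen.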
row,Compound,cell viability
1,C[N+](C)(CCOc1ccccc1)Cc1ccccc1.O=C(O)c1cc2ccccc2cc1[O-] [Bephenium Hydroxynaphthoate],160
2,CCN(CC)CCOC(=O)C1(C2CCCCC2)CCCCC1.Cl [Dicyclomine HCl],103
3,CN(C)CCOC(c1ccccc1)c1ccccc1.Cl [Diphenhydramine HCl],97.4
4,CCOc1ccc2ccccc2c1C(=O)NC1C(=O)N2C1SC(C)(C)C2C(=O)[O-].O.[Na+] (stereo not given) [Nafcillin Sodium],103
5,Cc1ccc(-n2nc(C(C)(C)C)cc2NC(=O)Nc2ccc(OCCN3CCOCC3)c3ccccc23)cc1 [BIRB 796 (Doramapimod)],78.8
6,C#CC1(O)CCC2C3CCc4cc(OC)ccc4C3CCC21C (stereo not given) [Mestranol],179
7,CC(=O)NC1C(N=C(N)N)C=C(C(=O)O)OC1C(O)C(O)CO (stereo not given) [Zanamivir],90.1
8,CS(=O)(=O)OCCCCOS(C)(=O)=O [Busulfan],99.6
9,Nc1nc(F)nc2c1ncn2C1OC(COP(=O)(O)O)C(O)C1O (stereo not given) [Fludarabine Phosphate (Fludara)],113
10,OCCOc1ccc(C(=C(CCCl)c2ccccc2)c2ccccc2)cc1 [Ospemifene],107
11,O=C(c1ccc(F)c(F)c1Nc1ccc(I)cc1F)N1CC(O)(C2CCCCN2)C1 (stereo not given) [Cobimetinib],82.2
12,CC1CC2C3CC(F)C4=CC(=O)C=CC4(C)C3(F)C(O)CC2(C)C1(O)C(=O)CO (stereo not given) [Flumethasone],163
13,Clc1ccc(COC(Cn2ccnc2)c2ccc(Cl)cc2Cl)cc1.O=[N+]([O-])O (stereo not given) [Econazole nitrate],113
14,CC(C)Cc1ccc(C(C)C(=O)O)cc1.NCCCCC(N)C(=O)O (stereo not given) [Ibuprofen Lysine],78.5
15,Cc1cc(C#N)cc(C)c1Oc1nc(Nc2ccc(C#N)cc2)nc(N)c1Br [Etravirine (TMC125)],118
16,CC1(C)SC2C(NC(=O)Cc3ccccc3)C(=O)N2C1C(=O)[O-].[Na+] (stereo not given) [Penicillin G Sodium],106
17,"CC(CN1CC(=O)NC(=O)C1)N1CC(=O)NC(=O)C1.Cl (stereo not given) [Dexrazoxane HCl (ICRF-187, ADR-529)]",85.7
18,CC[C@H](C)[C@@H]1NC(=O)[C@H](Cc2ccc(O)cc2)NC(=O)[C@@H](N)CSSC[C@@H](C(=O)N2CCC[C@H]2C(=O)N[C@@H](CC(C)C)C(=O)NCC(N)=O)NC(=O)[C@H](CC(N)=O)NC(=O)[C@H](CCC(N)=O)NC1=O [Oxytocin],97.4
19,CCOc1cc(C(CS(C)(=O)=O)N2C(=O)c3cccc(NC(C)=O)c3C2=O)ccc1OC (stereo not given),90.8
20,CCCCOc1ccc(C(=O)CCN2CCCCC2)cc1.Cl [Dyclonine HCl],139

row,Compound,cell viability
1,CCCNC(C)C(=O)Nc1c(C)csc1C(=O)OC.Cl (stereo not given) [Articaine HCl],109
2,Cl.NC(N)=NC(N)=NCCc1ccccc1 [Phenformin HCl],103
3,C=CC(=O)Nc1cc(Nc2nccc(-c3cn(C)c4ccccc34)n2)c(OC)cc1N(C)CCN(C)C,28.8
4,CC(Oc1cc(-c2cnn(C3CCNCC3)c2)cnc1N)c1c(Cl)ccc(F)c1Cl [(R)-Crizotinib],23.2
5,Cc1cc(C)c2c(c1)C(N(Cc1cc(C(F)(F)F)cc(C(F)(F)F)c1)c1nnn(C)n1)CCCN2CC1CCC(C(=O)O)CC1 (stereo not given),76.4
6,C#CCNC1CCc2ccccc21.CS(=O)(=O)O (stereo not given) [Rasagiline Mesylate],97.4
7,CC(=O)Oc1cc2c(s1)CCN(C(C(=O)C1CC1)c1ccccc1F)C2.Cl (stereo not given) [Prasugrel hydrochloride],117
8,CC(C)(C)NC(=O)C1CCC2C3CCC4NC(=O)C=CC4(C)C3CCC12C (stereo not given) [Finasteride],93.5
9,CCn1cc(C(=O)O)c(=O)c2cc(F)c(N3CCN(C)CC3)cc21.CS(=O)(=O)O [Pefloxacin Mesylate],83
10,CC1(C)CCC(c2ccc(Cl)cc2)=C(CN2CCN(c3ccc(C(=O)NS(=O)(=O)c4ccc(NC(CCN5CCOCC5)CSc5ccccc5)c(S(=O)(=O)C(F)(F)F)c4)cc3)CC2)C1 (stereo not given) [ABT-263 (Navitoclax)],62.9
11,CC12CCC3c4ccc(OC(=O)c5ccccc5)cc4CCC3C1CCC2O (stereo not given) [Estradiol Benzoate],82.4
12,COc1cccc(-c2ccc(NC(=O)C3=C(C(=O)O)CCC3)c(F)c2)c1 [Vidofludimus],150
13,COc1nc2ccc(Br)cc2cc1[C@@H](c1ccccc1)[C@@](O)(CCN(C)C)c1cccc2ccccc12 [Bedaquiline],113
14,Nc1nc(N)c2nc(-c3ccccc3)c(N)nc2n1 [Triamterene],99.3
15,CCC1(O)CC2CN(CCc3c([nH]c4ccccc34)C(C(=O)OC)(c3cc4c(cc3OC)N(C)C3C(O)(C(=O)OC)C(OC(C)=O)C5(CC)C=CCN6CCC43C65)C2)C1 (stereo not given) [vinblastine],73.4
16,CNC(=O)C(NC(=O)C(CC(C)C)C(O)C(=O)NO)C(C)(C)C (stereo not given) [Marimastat],65.2
17,CC12CCC(=O)C=C1C1CC1C1C2CCC2(C)C1C1CC1C21CCC(=O)O1 (stereo not given) [Drospirenone],86.7
18,CCC1OC(=O)C(C)C(OC2CC(C)(OC)C(O)C(C)O2)C(C)C(OC2OC(C)CC(N(C)C)C2O)C(C)(O)CC(C)CN(C)C(C)C(O)C1(C)O.O.O (stereo not given) [Azithromycin Dihydrate],96.7
19,NC(=O)c1ccc(I)c([N+](=O)[O-])c1 [Iniparib (BSI-201)],127
20,COc1cc2nc(N(C)CCCNC(=O)C3CCCO3)nc(N)c2cc1OC.Cl (stereo not given) [Alfuzosin HCl],91.4
